Laboratory results as given in publication PMC4336329 (PLoS ONE, 2015).
The whole screen tested about 310,000 compounds, of which about 2,200 (0.71%) showed an effect of 50% or more. The effect is printed as a negative number. This is one part of the list.

Molecular target: human ether-à-go-go-related gene (hERG) potassium channel (human, UniProt Q12809)
Assay: primary screen, population patch clamp on CHO cells stably expressing hERG

human ether-à-go-go-related gene (hERG) potassium channel, sequence (Q12809 whole entry, looked up): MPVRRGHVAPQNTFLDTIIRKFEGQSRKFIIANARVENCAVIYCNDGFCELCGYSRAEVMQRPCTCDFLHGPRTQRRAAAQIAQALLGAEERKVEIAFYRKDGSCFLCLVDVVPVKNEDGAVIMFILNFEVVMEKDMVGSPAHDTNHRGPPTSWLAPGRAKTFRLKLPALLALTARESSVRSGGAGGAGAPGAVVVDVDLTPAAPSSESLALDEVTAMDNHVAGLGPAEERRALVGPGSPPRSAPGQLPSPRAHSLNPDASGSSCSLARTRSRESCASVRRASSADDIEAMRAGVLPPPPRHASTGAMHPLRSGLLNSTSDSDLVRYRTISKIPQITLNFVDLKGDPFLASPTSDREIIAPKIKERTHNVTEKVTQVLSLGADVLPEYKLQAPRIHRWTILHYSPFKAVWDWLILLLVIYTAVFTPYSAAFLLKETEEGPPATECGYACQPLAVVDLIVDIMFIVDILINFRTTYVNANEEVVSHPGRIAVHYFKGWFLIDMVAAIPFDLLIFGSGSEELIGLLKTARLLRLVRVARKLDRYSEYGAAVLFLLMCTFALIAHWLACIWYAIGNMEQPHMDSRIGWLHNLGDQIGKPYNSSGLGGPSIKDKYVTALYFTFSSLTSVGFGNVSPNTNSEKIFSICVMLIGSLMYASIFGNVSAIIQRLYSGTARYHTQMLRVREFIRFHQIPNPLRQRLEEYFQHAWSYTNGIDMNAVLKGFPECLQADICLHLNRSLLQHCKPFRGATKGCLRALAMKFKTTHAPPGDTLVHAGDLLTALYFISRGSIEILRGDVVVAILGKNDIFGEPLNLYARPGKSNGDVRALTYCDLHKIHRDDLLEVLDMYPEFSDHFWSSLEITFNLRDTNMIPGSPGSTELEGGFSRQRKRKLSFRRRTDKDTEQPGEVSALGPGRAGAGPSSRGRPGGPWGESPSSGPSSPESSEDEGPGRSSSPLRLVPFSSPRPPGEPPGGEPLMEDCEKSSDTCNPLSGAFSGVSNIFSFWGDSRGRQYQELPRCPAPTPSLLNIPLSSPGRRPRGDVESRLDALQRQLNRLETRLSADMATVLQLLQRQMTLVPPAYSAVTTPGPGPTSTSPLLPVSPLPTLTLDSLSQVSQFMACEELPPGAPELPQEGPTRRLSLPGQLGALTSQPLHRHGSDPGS

First: COc1cccc(C(=O)Nc2ccc(NC(=O)C3CC3)cn2)c1
Second: COc1cccc(NC(=O)C2CCN(S(=O)(=O)c3ccc4[nH]c(=O)oc4c3)CC2)c1
The “hERG current change (%, negative = inhibition) at 1uM” value of the first is lower: 8.76% for the first, 13% for the second.

Going from CCC1CCCCN1CCCNC(=O)c1c(O)nc2c(C)cccn2c1=O (stereo not drawn) to Cc1c(NC(=O)C(C)N2C(=O)C3CCCCC3C2=O)c(=O)n(-c2ccccc2)n1C (stereo not drawn), the “hERG current change (%, negative = inhibition) at 1uM” value falls from 9.14% to 8.81%.

First: COc1ccc(-c2nc3c4c(ncn3n2)-c2ccccc2CC42CCCC2)cc1
Second: Cc1ccc(OCC(=O)Nc2ccccc2-c2ccccc2)cc1
The “hERG current change (%, negative = inhibition) at 1uM” value of the first is lower: 9.98% for the first, 14.6% for the second.

First: CCS(=O)(=O)N1CCCC(C(=O)NCCN2CCC(Cc3ccccc3)CC2)C1 (stereo not drawn)
Second: CCCS(=O)(=O)N1CCCC(C(=O)NCCc2ccc(Cl)cc2)C1 (stereo not drawn)
The “hERG current change (%, negative = inhibition) at 1uM” value of the first is higher: -11.4% for the first, -15.1% for the second.

Going from CCOc1ccc(/C=N/NC(=O)c2cc(-c3ccccc3)nc3ccccc23)cc1O to COc1ccc(-c2nnc(SC(C(=O)c3c[nH]c4ccccc34)c3ccccc3)n2N)cc1OC (stereo not drawn), the “hERG current change (%, negative = inhibition) at 1uM” value rises from 3.53% to 14%.

Going from CCOC(=O)N1CCN(CCC(=O)Nc2ccccc2)CC1 to Cn1c2ccccc2c2cnn(CC(=O)NCCCN3CCN(c4ccccc4F)CC3)c(=O)c21, the “hERG current change (%, negative = inhibition) at 1uM” value falls from 12% to -41.8%.

Going from CS(=O)(=O)N1CCC2(CC1)OCCN2S(=O)(=O)c1ccccc1 to CN(CCOc1ccccc1)c1ccc(S(=O)(=O)N2CCCCC2)cn1, the “hERG current change (%, negative = inhibition) at 1uM” value falls from -2.42% to -6.08%.

Compared with COc1ccc(OCCOC(=O)CNC(=O)c2ccc(C)cc2)cc1, CCOCCCNC(=O)C(NC(=O)CNC(=O)c1ccccc1)c1ccc(OC)cc1 (stereo not drawn) is higher in “hERG current change (%, negative = inhibition) at 1uM” value: 4.75% for the first, 14% for the second.

Compared with Cc1oc(-c2ccc(-c3ccccc3)cc2)nc1CN(C)C1CCOC1 (stereo not drawn), Cc1ccc2[nH]c(-c3ccccc3)c(CN3CCCC3)c(=O)c2c1 is higher in “hERG current change (%, negative = inhibition) at 1uM” value: -2.9% for the first, 10.5% for the second.

First: Cc1nc2ccc(S(=O)(=O)NCC(=O)N3CCN(c4ccccn4)CC3)cc2s1
Second: COc1ccc2nc(NC(=O)C3CCCN(S(=O)(=O)c4cccc5nonc45)C3)sc2c1 (stereo not drawn)
The “hERG current change (%, negative = inhibition) at 1uM” value of the first is lower: 10.9% for the first, 12% for the second.

First: CC(C)N(Cc1ccccc1)C(=O)CC(=O)N(Cc1ccccc1)C(C)C
Second: S=C(NCc1ccccc1)NCc1ccccn1
The “hERG current change (%, negative = inhibition) at 1uM” value of the first is higher: 11.1% for the first, 9.06% for the second.

Going from Cc1ccc(-n2ncc3c2CCCC3NC(=O)c2ccccc2N2CCOCC2)cc1C (stereo not drawn) to COc1cc(C(=O)NC(C)c2ccccc2)ccc1OCC(=O)N1CCOCC1 (stereo not drawn), the “hERG current change (%, negative = inhibition) at 1uM” value rises from 4.62% to 5.96%.

Compared with CCc1ccc(NC(=O)CSc2nnc(C3CC3)n2CC2CCCO2)cc1 (stereo not drawn), CCc1nc(SCC(=O)Nc2ccc(C(=O)O)cc2)n[nH]1 is higher in “hERG current change (%, negative = inhibition) at 1uM” value: 6.4% for the first, 14.2% for the second.

Compared with C=CCN1C(=O)/C(=C2\SC(N3CCOCC3)=NC2=O)c2cc(Br)ccc21, O=C(NCCN1CCOCC1)c1cc(-c2ccc(Cl)c(Cl)c2)on1 is lower in “hERG current change (%, negative = inhibition) at 1uM” value: 8.18% for the first, 2.54% for the second.

First: CCCOc1cccc(C(=O)NC(=S)Nc2cccc(NC(=O)c3ccccc3Cl)c2)c1
Second: O=C(Nc1cccc(C(=O)O)c1)/C(=C\C=C\c1ccccc1)NC(=O)c1ccccc1
The “hERG current change (%, negative = inhibition) at 1uM” value of the first is lower: 8.78% for the first, 13.5% for the second.

First: O=C(NCC1CCCO1)c1cc2c([nH]c3ccccc32)c(-c2cccc(Br)c2)n1 (stereo not drawn)
Second: Cc1cc(OCC(=O)NCC(O)c2ccccc2)c2c3c(c(=O)oc2c1)CCC3 (stereo not drawn)
The “hERG current change (%, negative = inhibition) at 1uM” value of the first is lower: -0.0832% for the first, 20.9% for the second.

Compared with CC(Oc1ccc(Cl)cc1)C(=O)NCCCn1ccnc1 (stereo not drawn), COc1ccc(NC(=O)C(Br)C(C)C)cc1 (stereo not drawn) is higher in “hERG current change (%, negative = inhibition) at 1uM” value: 5.41% for the first, 14.8% for the second.

Going from O=C(CSc1nnc(-c2ccncc2)o1)Nc1cc(F)ccc1F to Cc1cccc(NC(=O)CSc2nc(N)c(NC(=O)c3ccccc3F)c(=O)[nH]2)c1, the “hERG current change (%, negative = inhibition) at 1uM” value rises from 10.4% to 13.9%.

First: CCOc1ccc(NC(=O)CC2C(=O)NCCN2C(=O)c2ccc(Cl)cc2)cc1 (stereo not drawn)
Second: CCOc1ccc(N(CC(=O)NC2CCCC2)S(=O)(=O)c2ccccc2)cc1
The “hERG current change (%, negative = inhibition) at 1uM” value of the first is lower: -0.94% for the first, 8.51% for the second.

First: CCOC(=O)NC(=O)c1cn(CCN(C)C)c(=O)[nH]c1=O
Second: CCC1(c2ccccc2)NC(=O)N(CC(=O)NNC(=O)c2ccoc2C)C1=O (stereo not drawn)
The “hERG current change (%, negative = inhibition) at 1uM” value of the first is higher: 14% for the first, 4.5% for the second.

First: CCOc1cc(N2CCOCC2)c(OCC)cc1NC(=O)COC(=O)COc1cc(C)cc(C)c1
Second: O=C(COC(=O)COc1cccc(C(F)(F)F)c1)Nc1ccc(N2CCOCC2)cc1
The “hERG current change (%, negative = inhibition) at 1uM” value of the first is higher: 12.2% for the first, 9.13% for the second.

Compared with Cc1cc([N+](=O)[O-])ccc1NCc1ccc2c(c1)OCCO2, Cc1nc(NCc2ccc3c(c2)OCO3)c2oc3ccccc3c2n1 is lower in “hERG current change (%, negative = inhibition) at 1uM” value: 14.3% for the first, 10.6% for the second.

Compared with Cc1c(O)cc2c(c1O)C(=O)CC(c1ccccc1)O2 (stereo not drawn), Cc1ccc(S(=O)(=O)NNC(=O)c2c(O)c3ccccc3[nH]c2=O)cc1 is higher in “hERG current change (%, negative = inhibition) at 1uM” value: 4.54% for the first, 11.2% for the second.

Going from Cc1ccccc1OCc1nc2ccccc2[nH]1 to OC(c1ccccc1)c1nc2ccccc2[nH]1 (stereo not drawn), the “hERG current change (%, negative = inhibition) at 1uM” value rises from 11.7% to 16.5%.

First: COc1cc(Cl)ccc1NC(=O)COc1ccccc1C(=O)N1CCN(c2ccc(O)cc2)CC1
Second: CCOC(=O)c1ccccc1NC(=O)COC(=O)C1CCN(S(=O)(=O)c2ccccc2C(=O)OC)CC1
The “hERG current change (%, negative = inhibition) at 1uM” value of the first is lower: -27.3% for the first, 7.8% for the second.

Compared with COc1cc(/C=C(\C#N)c2nc3ccccc3[nH]2)ccc1O, COc1ccc(C2NC(=O)c3ccccc3N2)cc1OC (stereo not drawn) is higher in “hERG current change (%, negative = inhibition) at 1uM” value: 5.6% for the first, 13.2% for the second.

Going from CC(C)CCc1noc(CN2CCN(c3ccc(Cl)cn3)CC2)n1 to CC(CN1CCN(C)CC1)OC(=O)c1ccc(Cl)cc1Cl.Cl (stereo not drawn), the “hERG current change (%, negative = inhibition) at 1uM” value falls from 1.59% to -3.28%.

First: O=S(=O)(NCC(c1cccnc1)N1CCOCC1)c1ccccc1 (stereo not drawn)
Second: O=C(c1ccccc1)c1cc([N+](=O)[O-])ccc1N1CCCC1
The “hERG current change (%, negative = inhibition) at 1uM” value of the first is lower: 5.87% for the first, 12.2% for the second.

Going from Cc1c(C(=O)Nc2c3c(nn2C(C)(C)C)CS(=O)(=O)C3)cccc1[N+](=O)[O-] to Cc1ccc(C)c(NC(=S)N2CCC(NC(=O)c3cccc(F)c3)CC2)c1, the “hERG current change (%, negative = inhibition) at 1uM” value falls from 11.8% to 11.6%.

First: CCCCOc1ccc(C(=O)N2CCCCCC2)cc1
Second: Clc1ccc(Cl)c(OCCCCN2CCCCC2)c1
The “hERG current change (%, negative = inhibition) at 1uM” value of the first is higher: 1.28% for the first, -3.66% for the second.

First: Nc1[nH]nc2c1NN(c1ccc(Cl)cc1Cl)N2
Second: O=C(Nc1ccno1)Nc1ccc(Cl)cc1Cl
The “hERG current change (%, negative = inhibition) at 1uM” value of the first is higher: 14.1% for the first, 10.6% for the second.

Compared with CSc1ccc(/C=C2\NC(=O)NC2=O)cc1, Cc1ccc(S(=O)(=O)Oc2ccc(/C=C3\C(=N)N4N=C(S(C)(=O)=O)SC4=NC3=O)cc2)cc1 is lower in “hERG current change (%, negative = inhibition) at 1uM” value: 8.77% for the first, 5.75% for the second.

Compared with C=CCOn1c(C)c(C(C)=O)c2c3nonc3ccc21, Cc1ccc(-c2noc(CN(C)C(=O)c3ccoc3C)n2)cc1 is lower in “hERG current change (%, negative = inhibition) at 1uM” value: 13.1% for the first, 9.37% for the second.

Going from O=C(CCN1C(=O)/C(=C\c2ccccc2)SC1=S)NNC(=O)c1ccccc1O to Cc1ccc(NC(=O)CN(C)C(=O)C(C)OC(=O)c2ccccc2NCCO)cc1 (stereo not drawn), the “hERG current change (%, negative = inhibition) at 1uM” value falls from 14.5% to 13.3%.

Going from O=C(Nc1ccc2c(c1)OCO2)C1CC(=O)N(c2cccc(Cl)c2)C1 (stereo not drawn) to CC(C(=O)O)c1ccc2c(c1)[nH]c1ccc(Cl)cc12 (stereo not drawn), the “hERG current change (%, negative = inhibition) at 1uM” value rises from 6.68% to 20.5%.

Compared with Clc1cccc(CN2CCCCCCC2)c1Cl, CS(=O)(=O)N(CC(=O)N1CCCC1)c1ccccc1F is higher in “hERG current change (%, negative = inhibition) at 1uM” value: 5.7% for the first, 13.3% for the second.

Compared with C=CCn1c(-c2cc(-c3ccccc3)sc2N)n[nH]c1=S, Cc1cc(C)nc(N(C#N)Cc2ccccc2C)n1 is lower in “hERG current change (%, negative = inhibition) at 1uM” value: 6.63% for the first, -26.4% for the second.

Going from Cc1c(C)n(C(=O)CSc2ncn[nH]2)c2ccccc12 to CC(=O)c1sc(Nc2cccc(C)c2)nc1C, the “hERG current change (%, negative = inhibition) at 1uM” value falls from 10.1% to 8.75%.

Compared with CN(C)C(=O)C1Cc2ccccc2CN1S(=O)(=O)c1ccc(F)cc1 (stereo not drawn), C/C(=N\NC(=O)c1ccc(NS(=O)(=O)c2cccs2)cc1)c1ccccn1 is lower in “hERG current change (%, negative = inhibition) at 1uM” value: 14.3% for the first, 8.15% for the second.

Going from COc1ccc2cc(S(=O)(=O)N3CCCC3)ccc2c1 to COc1ccc(CCNC(=O)CN(c2ccc(OC)c(OC)c2)S(=O)(=O)c2ccc(C)cc2)cc1, the “hERG current change (%, negative = inhibition) at 1uM” value falls from 12.5% to 6.49%.

First: COC(=O)N/N=C\c1ccc(OC/C=C/c2ccccc2)cc1
Second: COc1cccc(NC(=O)Cn2c(=O)n(-c3cc(OC)c(OC)c(OC)c3)c(=O)c3ccccc32)c1
The “hERG current change (%, negative = inhibition) at 1uM” value of the first is higher: 11.3% for the first, 4.96% for the second.

Going from Cc1cc(C)c(N2C(=O)CCCC2=O)c(Cl)c1 to C/C(Cl)=C\Cn1c(Nc2ccc(C)cc2)nc2c1c(=O)n(C)c(=O)n2C, the “hERG current change (%, negative = inhibition) at 1uM” value falls from 16.9% to 10.4%.

First: CC(=O)Nc1cc(Br)ccc1O
Second: CC(=O)Oc1ccc(C(=O)O)cc1OC(C)=O
The “hERG current change (%, negative = inhibition) at 1uM” value of the first is higher: 10.2% for the first, 8.81% for the second.

First: C[C@H](NC(=O)COc1ccc(Cl)cc1)C(=O)N1CCC2(CC1)NCCc1[nH]cnc12
Second: CC1CCC/C(=C\Nc2ccccc2C(=O)O)C1=O (stereo not drawn)
The “hERG current change (%, negative = inhibition) at 1uM” value of the first is higher: 18.8% for the first, -5.84% for the second.

Compared with O=C(COC(=O)c1cccc([N+](=O)[O-])c1)NCC1CCCO1 (stereo not drawn), COc1cccc(NC(=S)N(CCN(C)C)Cc2cccs2)c1 is lower in “hERG current change (%, negative = inhibition) at 1uM” value: 8.29% for the first, -2.49% for the second.
